Assay results taken from article PMC6602471.
This is one part of the list. At the low end of the ranking, values are background and their order means little.

What follows are sequences tested against T1, ELK1 (UniProt P19419) (assay: custom PBM). Details: custom protein-binding microarray; buffer, salt, pH and temperature not stated; high values mean tight binding; double strand, one strand shown.
T1 sequence: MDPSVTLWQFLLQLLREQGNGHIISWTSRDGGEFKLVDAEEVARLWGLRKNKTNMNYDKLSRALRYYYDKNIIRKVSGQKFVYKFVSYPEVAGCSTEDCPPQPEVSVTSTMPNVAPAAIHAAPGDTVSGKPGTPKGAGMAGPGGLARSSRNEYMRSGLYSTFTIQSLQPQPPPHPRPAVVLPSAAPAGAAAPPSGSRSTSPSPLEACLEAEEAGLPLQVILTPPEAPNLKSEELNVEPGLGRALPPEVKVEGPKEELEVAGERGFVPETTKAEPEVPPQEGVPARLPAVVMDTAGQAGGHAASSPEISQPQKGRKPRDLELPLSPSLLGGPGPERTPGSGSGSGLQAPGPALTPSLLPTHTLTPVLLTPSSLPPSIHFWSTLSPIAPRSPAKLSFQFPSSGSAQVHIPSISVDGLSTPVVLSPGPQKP

Sequence	binding signal (log fluorescence intensity)
GTGTATAGGATCCAATCCAACACACGTGTTAAAATGGTCTTGATTCGCTTGACGCTGCTG	8.9
CACAATTTTTACAGTAGTGTAGCACGCGTAACTCCTGTCTTGATTCGCTTGACGCTGCTG	8.95
GCTGCTGCGGTGCATACCCCACCGGATGTGCCCCCGGTCTTGATTCGCTTGACGCTGCTG	10.2
GATTAATTTCCGCCCTTATTCGCACGTGCCATAACAGTCTTGATTCGCTTGACGCTGCTG	12.5
GATTAATTTCTGCCCTTATTCGCACGTGCCATAACTGTCTTGATTCGCTTGACGCTGCTG	8.83
GATTAATTTCTGCCCTTATTCGCACGTACCATAACAGTCTTGATTCGCTTGACGCTGCTG	8.83
GTGTATAGGACCCCATCCAACACACGTGTTAAAATGGTCTTGATTCGCTTGACGCTGCTG	8.75
CACAATTTTTACCGTAATGTAGCACGCGTAACTCCTGTCTTGATTCGCTTGACGCTGCTG	8.86
TACTGCCTTATATATGCGAATGCACATGAATAGACCGTCTTGATTCGCTTGACGCTGCTG	9.03
CACAATTTTTACAGTAATGTAGCACGCGTAATTCCTGTCTTGATTCGCTTGACGCTGCTG	8.98
TCCTGACTTATATATGCGAATGCACATGAATAGACCGTCTTGATTCGCTTGACGCTGCTG	8.85
TCCGGCTACCAGCTCCACCCACTTCAGGCCTTGAAGGTCTTGATTCGCTTGACGCTGCTG	8.77
TAAAGGGAATACGGTTGTGGTAGTTCCGGGTATTAAGTCTTGATTCGCTTGACGCTGCTG	11.1
CAGCATAGGACTTCTACCCTGAAGCAATTGATAACCGTCTTGATTCGCTTGACGCTGCTG	8.72
TAAAGGGAAGACGGTTGTGGTAGTTCCGGGTATTGAGTCTTGATTCGCTTGACGCTGCTG	11.3
CAGCATAGGACTTCTTCCCTGAAGCAATTTATAACCGTCTTGATTCGCTTGACGCTGCTG	8.72
CTGGGACTTTACCCAACTCTGCCACGTGGGTCGTTTGTCTTGATTCGCTTGACGCTGCTG	8.67
CACAATTTTTACAGTAATGTAGCACGCGTAACTCTTGTCTTGATTCGCTTGACGCTGCTG	8.84
GATTAATTTCTGCCCTTATTCGCACGTGCCATAGCAGTCTTGATTCGCTTGACGCTGCTG	8.8
TGTCGGGTAAGGGAATGTAGATCACCTGAATGAAAAGTCTTGATTCGCTTGACGCTGCTG	8.81
GTGTATAGGATCCCATCCAACACACGTGTTAAATTGGTCTTGATTCGCTTGACGCTGCTG	8.89

Sequence	binding signal (log fluorescence intensity)
GTGTATAGGATCCCATCCAACACAGGTGTTAAAATGGTCTTGATTCGCTTGACGCTGCTG	8.87
TCCGGCTACCAGCTCCACCCACTTTAGGCCTTGTAGGTCTTGATTCGCTTGACGCTGCTG	8.87
GATTAATTTCTGCCCTTATTCGCACGTGCCGTAACAGTCTTGATTCGCTTGACGCTGCTG	8.83
TGTCGGGTATGGGAATGTAGATCACGTGAATGAAAAGTCTTGATTCGCTTGACGCTGCTG	8.87
TGTCGGCTAAGGGAATGTAGATCACGTGAATGAAAAGTCTTGATTCGCTTGACGCTGCTG	8.86
CACAATATTTACAGTAATGTAGCACGCGTAACTCCTGTCTTGATTCGCTTGACGCTGCTG	8.95
TAAAGGGAAGACGGTTGTGGTAGTGCCGGGTATTAAGTCTTGATTCGCTTGACGCTGCTG	8.87
CAGCATAGGACTTCTTCCCTGAAGCAAGTGATAACCGTCTTGATTCGCTTGACGCTGCTG	8.97
CTGGGACTTGACCCAACTCTCCCACGTGGGTCGTTTGTCTTGATTCGCTTGACGCTGCTG	8.78
CGGAAGTGTGGTAAACGTCGGATATCCGGTTCTTCTGTCTTGATTCGCTTGACGCTGCTG	12
CTGGGACTTGACGCAACTCTGCCACGTGGGTCGTTTGTCTTGATTCGCTTGACGCTGCTG	8.82
TAAAGGGAAGACGGTTGTGGTAGTTTCGGGTATTAAGTCTTGATTCGCTTGACGCTGCTG	8.97
GCTGCTGCGGAGCATACCCCACCGGATGTGACCCCGGTCTTGATTCGCTTGACGCTGCTG	10.3
GATTAATTTCTGCCCTTATTCGCACGTGCCATAACCGTCTTGATTCGCTTGACGCTGCTG	8.86
TACTGACTTATATATGCGAATGCACATAAATAGACCGTCTTGATTCGCTTGACGCTGCTG	8.85
TACTGAGTTATATATGCGAATGCACATGAATAGACCGTCTTGATTCGCTTGACGCTGCTG	8.97
TAAAGGGAAGACGGTTGTGGTAGTTCCGGGCATTAAGTCTTGATTCGCTTGACGCTGCTG	11.3
CGGAGGTGTCGTAAACGTCGGATATCCGGTTCTTCTGTCTTGATTCGCTTGACGCTGCTG	12.2
CGGAAGTGTCGTAGACGTCGGATATCCGGTTCTTCTGTCTTGATTCGCTTGACGCTGCTG	12.3
CACTGACTTATATATGCGAATGCACATGAATAGACCGTCTTGATTCGCTTGACGCTGCTG	8.71
TACTGACTTATATATGCGAATCCACATGAATAGACCGTCTTGATTCGCTTGACGCTGCTG	8.88

Sequence	binding signal (log fluorescence intensity)
TAAAGGGAAGACGGTTGTGATAGTTCCGGGTATTAAGTCTTGATTCGCTTGACGCTGCTG	11.1
CCCAATTTTTACAGTAATGTAGCACGCGTAACTCCTGTCTTGATTCGCTTGACGCTGCTG	8.98
TAGTGACTTATATATGCGAATGCACATGAATAGACCGTCTTGATTCGCTTGACGCTGCTG	8.9
CACAATTTTTACAGTAATGTAGCACGCGTAACTCCTGTCTTGATTCGCTTGACGCTGCTG	8.83
GTGTAAAGGATCCCATCCAACACACGTGTTAAAATGGTCTTGATTCGCTTGACGCTGCTG	9.02
GGAAAAAGGCCCAGGGTAACACCGGAAGCGGGCTTAGTCTTGATTCGCTTGACGCTGCTG	10.5
GATTAAATTCTGCCCTTATTCGCACGTGCCATAACAGTCTTGATTCGCTTGACGCTGCTG	8.86
CAGCATAGGACTTCTTCCCTGAAGCAATTGATAACGGTCTTGATTCGCTTGACGCTGCTG	8.9
TACTGACTTATATATGCGAATGCACATGAATAGACGGTCTTGATTCGCTTGACGCTGCTG	8.69
CGGAAATGTCGTAAACGTCGGATATCCGGTTCTTCTGTCTTGATTCGCTTGACGCTGCTG	12.6
CAGCATAAGACTTCTTCCCTGAAGCAATTGATAACCGTCTTGATTCGCTTGACGCTGCTG	8.89
GGAAAAAGGTCCAGGGTAACACCGGAAGTGGGCTTAGTCTTGATTCGCTTGACGCTGCTG	10.9
GGTAAAAGGCCCAGGGTAACACCGGAAGTGGGCTTAGTCTTGATTCGCTTGACGCTGCTG	11
GCTGCTGCGGTGCATACCCCACCGGTTGTGACCCCGGTCTTGATTCGCTTGACGCTGCTG	8.84
TAAAGGGAAGACGGTTGTGGTGGTTCCGGGTATTAAGTCTTGATTCGCTTGACGCTGCTG	11.1
CAGCATAGGACTTCTTCCCTGAAGCAATGGATAACCGTCTTGATTCGCTTGACGCTGCTG	9
TTTCGGGTAAGGGAATGTAGATCACGTGAATGAAAAGTCTTGATTCGCTTGACGCTGCTG	8.8
GGAACAAGGCCCAGGGTAACACCGGAAGTGGGCTTAGTCTTGATTCGCTTGACGCTGCTG	10.9
CGGAAGTGTCGTAAATGTCGGATATCCGGTTCTTCTGTCTTGATTCGCTTGACGCTGCTG	12.7
CGGAAGTGTCGTAAACGTCGGATATACGGTTCTTCTGTCTTGATTCGCTTGACGCTGCTG	9.29
TAAAGGGAAGACGGTTGTGGTAGTTACGGGTATTAAGTCTTGATTCGCTTGACGCTGCTG	9.1

Sequence	binding signal (log fluorescence intensity)
CACAATTTTTACAGTAATGTAGCACGCGTGACTCCTGTCTTGATTCGCTTGACGCTGCTG	9
GCTGCTGCGGTGCATACCCCACCGGATGTAACCCCGGTCTTGATTCGCTTGACGCTGCTG	10.2
GTGTATAGGATCCCATCCAACAAACGTGTTAAAATGGTCTTGATTCGCTTGACGCTGCTG	8.94
GTGTATAGGATCCCATCCAACACACGTGTTAAAAGGGTCTTGATTCGCTTGACGCTGCTG	8.9
TCCGGCTGCCAGCTCCACCCACTTCAGGCCTTGTAGGTCTTGATTCGCTTGACGCTGCTG	8.74
TACTGACTTATATATGCGAATGCACATGACTAGACCGTCTTGATTCGCTTGACGCTGCTG	8.72
TGCTGACTTATATATGCGAATGCACATGAATAGACCGTCTTGATTCGCTTGACGCTGCTG	8.75
CTGGGACTTGACCCAACTCTGCCACGTGGGTCGTTGGTCTTGATTCGCTTGACGCTGCTG	8.95
TAAAGGGAAGACGGTTGTGGTAGTTCCGGGTATTACGTCTTGATTCGCTTGACGCTGCTG	11.1
CTGGGACTTGACCCAACTCTACCACGTGGGTCGTTTGTCTTGATTCGCTTGACGCTGCTG	9.09
TACTGACTTATATATGCGAGTGCACATGAATAGACCGTCTTGATTCGCTTGACGCTGCTG	8.93
TCCGGCTACCAGCTCCACCCACTTCAGGCCTTGTCGGTCTTGATTCGCTTGACGCTGCTG	9.01
CAGCATAGGACATCTTCCCTGAAGCAATTGATAACCGTCTTGATTCGCTTGACGCTGCTG	8.87
TAAAGGGAAGACGGTTGTGGTAGTTCTGGGTATTAAGTCTTGATTCGCTTGACGCTGCTG	8.85
GATTAATTTCTGCCCTTATTCGCACGTGCCATAATAGTCTTGATTCGCTTGACGCTGCTG	8.85
AGAAAAAGGCCCAGGGTAACACCGGAAGTGGGCTTAGTCTTGATTCGCTTGACGCTGCTG	11.1
GGAAAAAGGCCCAGGGTAACACCGGACGTGGGCTTAGTCTTGATTCGCTTGACGCTGCTG	9.38
GATTAATTTCTGCCCTTATTCGTACGTGCCATAACAGTCTTGATTCGCTTGACGCTGCTG	8.81
